# Article PMC12820563, “FoxP3 forms a head-to-head dimer in vivo and stabilizes its multimerization on adjacent microsatellites”
# The list shows a part of the results.
# Molecular target: T1, MBP-FoxP1dN (Mus musculus, UniProt P58462 326-579)
# T1 sequence: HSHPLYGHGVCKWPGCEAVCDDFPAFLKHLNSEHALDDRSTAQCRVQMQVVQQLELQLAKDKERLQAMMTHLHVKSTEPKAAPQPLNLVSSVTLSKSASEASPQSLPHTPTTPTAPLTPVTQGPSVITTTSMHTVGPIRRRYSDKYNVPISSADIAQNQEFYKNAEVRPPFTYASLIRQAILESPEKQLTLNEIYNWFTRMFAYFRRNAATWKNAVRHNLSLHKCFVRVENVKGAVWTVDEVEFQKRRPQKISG
# Assay: PD-seq (MBP pull-down with sequencing); 20 mM Tris-HCl pH 7.5, 100 mM NaCl, 1.5 mM MgCl2, 0.4 uM protein, 0.1 uM dsDNA library, 30 min, room temperature, amylose pull-down; high values mean tight binding
# Settings: protein: recombinant; tags: His6-MBP; chain copies: 2; dsDNA, one strand shown
# Method in brief: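 Binding is the reads-per-million enrichment of pull-down relative to input, pooled across replicates. For this, 0.4 µM His6-MBP-tagged mouse FoxP3 or FoxP1 fragment lacking the N-terminus, made in E. coli, was incubated with 0.1 µM Klenow-filled double-stranded degenerate DNA library for 30 min at room temperature in Tris pH 7.5 buffer with NaCl and MgCl2. Complexes bound to amylose resin were washed three times before proteinase K released the DNA for PCR barcoding and Illumina sequencing.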
row,Sequence,binding signal
1,GATGATTGTTCTCCCAGCTGATGAATTGACGAGCTCGAGTAAACAAATTTTCCTAATCTTTCTGTTCAAGCGCCATCTAC,0.883 RPM ratio (pull-down/input)
2,GATGATTGTTCTCCCAGCTGATGAATTCTCTCCGTCGAGTAAACAAATTTTCCTAATCTTTCTGTTCAAGCGCCATCTAC,0.809 RPM ratio (pull-down/input)
3,GATGATTGTTCTCCCAGCTGATGAATTTCATTATTCGAGTAAACAAATTTTCCTAATCTTTCTGTTCAAGCGCCATCTAC,0.95 RPM ratio (pull-down/input)
4,GATGATTGTTCTCCCAGCTGATGAATTCTAACTTTCGAGTAAACAAATTTTCCTAATCTTTCTGTTCAAGCGCCATCTAC,0.935 RPM ratio (pull-down/input)
5,GATGATTGTTCTCCCAGCTGATGAATTAACCAAGTCGAGTAAACAAATTTTCCTAATCTTTCTGTTCAAGCGCCATCTAC,0.826 RPM ratio (pull-down/input)
6,GATGATTGTTCTCCCAGCTGATGAATTCTATGACTCGAGTAAACAAATTTTCCTAATCTTTCTGTTCAAGCGCCATCTAC,0.968 RPM ratio (pull-down/input)
7,GATGATTGTTCTCCCAGCTGATGAATTCTGATTGTCGAGTAAACAAATTTTCCTAATCTTTCTGTTCAAGCGCCATCTAC,1.19 RPM ratio (pull-down/input)
8,GATGATTGTTCTCCCAGCTGATGAATTAAAGCTCTCGAGTAAACAAATTTTCCTAATCTTTCTGTTCAAGCGCCATCTAC,0.891 RPM ratio (pull-down/input)
9,GATGATTGTTCTCCCAGCTGATGAATTAATGTCATCGAGTAAACAAATTTTCCTAATCTTTCTGTTCAAGCGCCATCTAC,1.3 RPM ratio (pull-down/input)
10,GATGATTGTTCTCCCAGCTGATGAATTACGAGAGTCGAGTAAACAAATTTTCCTAATCTTTCTGTTCAAGCGCCATCTAC,0.91 RPM ratio (pull-down/input)
11,GATGATTGTTCTCCCAGCTGATGAATTTTAGGCTTCGAGTAAACAAATTTTCCTAATCTTTCTGTTCAAGCGCCATCTAC,0.904 RPM ratio (pull-down/input)
12,GATGATTGTTCTCCCAGCTGATGAATTTCACAGATCGAGTAAACAAATTTTCCTAATCTTTCTGTTCAAGCGCCATCTAC,0.838 RPM ratio (pull-down/input)
13,GATGATTGTTCTCCCAGCTGATGAATTAGTCAATTCGAGTAAACAAATTTTCCTAATCTTTCTGTTCAAGCGCCATCTAC,1.09 RPM ratio (pull-down/input)
14,GATGATTGTTCTCCCAGCTGATGAATTGCCATCCTCGAGTAAACAAATTTTCCTAATCTTTCTGTTCAAGCGCCATCTAC,0.928 RPM ratio (pull-down/input)
15,GATGATTGTTCTCCCAGCTGATGAATTTACGGCTTCGAGTAAACAAATTTTCCTAATCTTTCTGTTCAAGCGCCATCTAC,1.14 RPM ratio (pull-down/input)
16,GATGATTGTTCTCCCAGCTGATGAATTATGGGAGTCGAGTAAACAAATTTTCCTAATCTTTCTGTTCAAGCGCCATCTAC,0.976 RPM ratio (pull-down/input)
17,GATGATTGTTCTCCCAGCTGATGAATTTCACACGTCGAGTAAACAAATTTTCCTAATCTTTCTGTTCAAGCGCCATCTAC,0.844 RPM ratio (pull-down/input)
18,GATGATTGTTCTCCCAGCTGATGAATTCAAAGGCTCGAGTAAACAAATTTTCCTAATCTTTCTGTTCAAGCGCCATCTAC,0.876 RPM ratio (pull-down/input)
19,GATGATTGTTCTCCCAGCTGATGAATTGCGGATCTCGAGTAAACAAATTTTCCTAATCTTTCTGTTCAAGCGCCATCTAC,1.02 RPM ratio (pull-down/input)
20,GATGATTGTTCTCCCAGCTGATGAATTTCTATCGTCGAGTAAACAAATTTTCCTAATCTTTCTGTTCAAGCGCCATCTAC,0.923 RPM ratio (pull-down/input)
21,GATGATTGTTCTCCCAGCTGATGAATTGGAAGAATCGAGTAAACAAATTTTCCTAATCTTTCTGTTCAAGCGCCATCTAC,0.898 RPM ratio (pull-down/input)

row,Sequence,binding signal
1,GATGATTGTTCTCCCAGCTGATGAATTGCTGCGCTCGAGTAAACAAATTTTCCTAATCTTTCTGTTCAAGCGCCATCTAC,0.956 RPM ratio (pull-down/input)
2,GATGATTGTTCTCCCAGCTGATGAATTTAGTTGATCGAGTAAACAAATTTTCCTAATCTTTCTGTTCAAGCGCCATCTAC,1.34 RPM ratio (pull-down/input)
3,GATGATTGTTCTCCCAGCTGATGAATTAATCGGATCGAGTAAACAAATTTTCCTAATCTTTCTGTTCAAGCGCCATCTAC,0.781 RPM ratio (pull-down/input)
4,GATGATTGTTCTCCCAGCTGATGAATTCAGGTAATCGAGTAAACAAATTTTCCTAATCTTTCTGTTCAAGCGCCATCTAC,1.38 RPM ratio (pull-down/input)
5,GATGATTGTTCTCCCAGCTGATGAATTGTAGCAGTCGAGTAAACAAATTTTCCTAATCTTTCTGTTCAAGCGCCATCTAC,0.961 RPM ratio (pull-down/input)
6,GATGATTGTTCTCCCAGCTGATGAATTGCTAGGGTCGAGTAAACAAATTTTCCTAATCTTTCTGTTCAAGCGCCATCTAC,0.866 RPM ratio (pull-down/input)
7,GATGATTGTTCTCCCAGCTGATGAATTTTGGGGCTCGAGTAAACAAATTTTCCTAATCTTTCTGTTCAAGCGCCATCTAC,0.756 RPM ratio (pull-down/input)
8,GATGATTGTTCTCCCAGCTGATGAATTACCTCGATCGAGTAAACAAATTTTCCTAATCTTTCTGTTCAAGCGCCATCTAC,0.998 RPM ratio (pull-down/input)
9,GATGATTGTTCTCCCAGCTGATGAATTCCTCGTTTCGAGTAAACAAATTTTCCTAATCTTTCTGTTCAAGCGCCATCTAC,0.773 RPM ratio (pull-down/input)
10,GATGATTGTTCTCCCAGCTGATGAATTCAGCGTTTCGAGTAAACAAATTTTCCTAATCTTTCTGTTCAAGCGCCATCTAC,0.891 RPM ratio (pull-down/input)
11,GATGATTGTTCTCCCAGCTGATGAATTAGCTCGATCGAGTAAACAAATTTTCCTAATCTTTCTGTTCAAGCGCCATCTAC,0.866 RPM ratio (pull-down/input)
12,GATGATTGTTCTCCCAGCTGATGAATTTACCCGATCGAGTAAACAAATTTTCCTAATCTTTCTGTTCAAGCGCCATCTAC,1.09 RPM ratio (pull-down/input)
13,GATGATTGTTCTCCCAGCTGATGAATTAAGTGGTTCGAGTAAACAAATTTTCCTAATCTTTCTGTTCAAGCGCCATCTAC,0.953 RPM ratio (pull-down/input)
14,GATGATTGTTCTCCCAGCTGATGAATTTCCATCTTCGAGTAAACAAATTTTCCTAATCTTTCTGTTCAAGCGCCATCTAC,0.809 RPM ratio (pull-down/input)
15,GATGATTGTTCTCCCAGCTGATGAATTCGAGGACTCGAGTAAACAAATTTTCCTAATCTTTCTGTTCAAGCGCCATCTAC,0.74 RPM ratio (pull-down/input)
16,GATGATTGTTCTCCCAGCTGATGAATTGAACGGGTCGAGTAAACAAATTTTCCTAATCTTTCTGTTCAAGCGCCATCTAC,0.773 RPM ratio (pull-down/input)
17,GATGATTGTTCTCCCAGCTGATGAATTCTTTACTTCGAGTAAACAAATTTTCCTAATCTTTCTGTTCAAGCGCCATCTAC,0.993 RPM ratio (pull-down/input)
18,GATGATTGTTCTCCCAGCTGATGAATTCTTTAGGTCGAGTAAACAAATTTTCCTAATCTTTCTGTTCAAGCGCCATCTAC,0.821 RPM ratio (pull-down/input)
19,GATGATTGTTCTCCCAGCTGATGAATTGCTGACCTCGAGTAAACAAATTTTCCTAATCTTTCTGTTCAAGCGCCATCTAC,0.907 RPM ratio (pull-down/input)
20,GATGATTGTTCTCCCAGCTGATGAATTTAGCACGTCGAGTAAACAAATTTTCCTAATCTTTCTGTTCAAGCGCCATCTAC,0.886 RPM ratio (pull-down/input)
21,GATGATTGTTCTCCCAGCTGATGAATTAGGACGATCGAGTAAACAAATTTTCCTAATCTTTCTGTTCAAGCGCCATCTAC,0.899 RPM ratio (pull-down/input)

row,Sequence,binding signal
1,GATGATTGTTCTCCCAGCTGATGAATTGATCACTTCGAGTAAACAAATTTTCCTAATCTTTCTGTTCAAGCGCCATCTAC,1.02 RPM ratio (pull-down/input)
2,GATGATTGTTCTCCCAGCTGATGAATTGTGATTATCGAGTAAACAAATTTTCCTAATCTTTCTGTTCAAGCGCCATCTAC,1.74 RPM ratio (pull-down/input)
3,GATGATTGTTCTCCCAGCTGATGAATTGAGACTATCGAGTAAACAAATTTTCCTAATCTTTCTGTTCAAGCGCCATCTAC,0.923 RPM ratio (pull-down/input)
4,GATGATTGTTCTCCCAGCTGATGAATTCACTGTTTCGAGTAAACAAATTTTCCTAATCTTTCTGTTCAAGCGCCATCTAC,0.989 RPM ratio (pull-down/input)
5,GATGATTGTTCTCCCAGCTGATGAATTTTGACGCTCGAGTAAACAAATTTTCCTAATCTTTCTGTTCAAGCGCCATCTAC,0.967 RPM ratio (pull-down/input)
6,GATGATTGTTCTCCCAGCTGATGAATTCCGAACCTCGAGTAAACAAATTTTCCTAATCTTTCTGTTCAAGCGCCATCTAC,0.751 RPM ratio (pull-down/input)
7,GATGATTGTTCTCCCAGCTGATGAATTTTACTCCTCGAGTAAACAAATTTTCCTAATCTTTCTGTTCAAGCGCCATCTAC,0.83 RPM ratio (pull-down/input)
8,GATGATTGTTCTCCCAGCTGATGAATTCGTACGTTCGAGTAAACAAATTTTCCTAATCTTTCTGTTCAAGCGCCATCTAC,0.931 RPM ratio (pull-down/input)
9,GATGATTGTTCTCCCAGCTGATGAATTTGCCGAGTCGAGTAAACAAATTTTCCTAATCTTTCTGTTCAAGCGCCATCTAC,0.837 RPM ratio (pull-down/input)
10,GATGATTGTTCTCCCAGCTGATGAATTTTTGTCGTCGAGTAAACAAATTTTCCTAATCTTTCTGTTCAAGCGCCATCTAC,1.24 RPM ratio (pull-down/input)
11,GATGATTGTTCTCCCAGCTGATGAATTACACGCCTCGAGTAAACAAATTTTCCTAATCTTTCTGTTCAAGCGCCATCTAC,1.1 RPM ratio (pull-down/input)
12,GATGATTGTTCTCCCAGCTGATGAATTTCCAGCATCGAGTAAACAAATTTTCCTAATCTTTCTGTTCAAGCGCCATCTAC,1 RPM ratio (pull-down/input)
13,GATGATTGTTCTCCCAGCTGATGAATTTTTTGCTTCGAGTAAACAAATTTTCCTAATCTTTCTGTTCAAGCGCCATCTAC,0.938 RPM ratio (pull-down/input)
14,GATGATTGTTCTCCCAGCTGATGAATTCCCGGCCTCGAGTAAACAAATTTTCCTAATCTTTCTGTTCAAGCGCCATCTAC,0.725 RPM ratio (pull-down/input)
15,GATGATTGTTCTCCCAGCTGATGAATTCTAGCTCTCGAGTAAACAAATTTTCCTAATCTTTCTGTTCAAGCGCCATCTAC,0.804 RPM ratio (pull-down/input)
16,GATGATTGTTCTCCCAGCTGATGAATTTCAACGGTCGAGTAAACAAATTTTCCTAATCTTTCTGTTCAAGCGCCATCTAC,0.82 RPM ratio (pull-down/input)
17,GATGATTGTTCTCCCAGCTGATGAATTGGAGTGATCGAGTAAACAAATTTTCCTAATCTTTCTGTTCAAGCGCCATCTAC,0.888 RPM ratio (pull-down/input)
18,GATGATTGTTCTCCCAGCTGATGAATTGAATAGGTCGAGTAAACAAATTTTCCTAATCTTTCTGTTCAAGCGCCATCTAC,0.931 RPM ratio (pull-down/input)
19,GATGATTGTTCTCCCAGCTGATGAATTTCTACCATCGAGTAAACAAATTTTCCTAATCTTTCTGTTCAAGCGCCATCTAC,0.994 RPM ratio (pull-down/input)
20,GATGATTGTTCTCCCAGCTGATGAATTATGGTTCTCGAGTAAACAAATTTTCCTAATCTTTCTGTTCAAGCGCCATCTAC,0.943 RPM ratio (pull-down/input)
21,GATGATTGTTCTCCCAGCTGATGAATTGAGACGGTCGAGTAAACAAATTTTCCTAATCTTTCTGTTCAAGCGCCATCTAC,0.782 RPM ratio (pull-down/input)
